The full ranking holds about 110,000 compounds; the median of “z-score” is about -0.1, and the highest 2% start at about 2. The list shows a part of the results.
These compounds were tested against Metabotropic glutamate receptor 8 (Rattus norvegicus) (UniProt P70579) (assay: rat mGluR8 modulators via GIRK flux, primary screen, cell-based, thallium flux, HTS (AID 488969)). Conditions: HEK293 rat mGluR8, GIRK (G protein-gated inwardly rectifying potassium channel) thallium flux, FluoZin2; at 10 µM; stronger effect = higher value; submaximal glutamate (EC20) added with thallium.
Chain of UniProt P70579 (P70579 whole entry, looked up): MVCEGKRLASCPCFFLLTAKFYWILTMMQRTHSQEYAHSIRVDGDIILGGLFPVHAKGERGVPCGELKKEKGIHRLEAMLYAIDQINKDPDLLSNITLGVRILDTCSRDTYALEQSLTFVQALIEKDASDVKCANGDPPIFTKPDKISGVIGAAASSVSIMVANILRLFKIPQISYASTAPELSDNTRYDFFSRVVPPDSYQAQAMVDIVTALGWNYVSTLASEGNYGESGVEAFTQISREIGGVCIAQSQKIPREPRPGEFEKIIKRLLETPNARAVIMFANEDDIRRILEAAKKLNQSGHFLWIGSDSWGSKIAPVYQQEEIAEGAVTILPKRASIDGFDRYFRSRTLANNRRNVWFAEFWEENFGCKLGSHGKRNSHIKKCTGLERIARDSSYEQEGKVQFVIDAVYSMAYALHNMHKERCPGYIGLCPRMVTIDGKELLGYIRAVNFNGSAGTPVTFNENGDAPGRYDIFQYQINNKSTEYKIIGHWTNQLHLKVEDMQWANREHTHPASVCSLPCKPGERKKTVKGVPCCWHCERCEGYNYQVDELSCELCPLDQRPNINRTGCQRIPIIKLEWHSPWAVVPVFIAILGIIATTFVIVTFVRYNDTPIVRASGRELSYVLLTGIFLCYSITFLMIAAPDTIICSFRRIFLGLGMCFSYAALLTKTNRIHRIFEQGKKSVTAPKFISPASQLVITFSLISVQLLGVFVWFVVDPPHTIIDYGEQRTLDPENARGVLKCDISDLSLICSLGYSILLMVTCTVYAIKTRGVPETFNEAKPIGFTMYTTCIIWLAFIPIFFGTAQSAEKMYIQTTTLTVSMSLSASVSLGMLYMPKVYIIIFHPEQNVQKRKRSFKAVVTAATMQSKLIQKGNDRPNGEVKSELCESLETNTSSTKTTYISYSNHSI

Compound | z-score
COc1cccc(-c2nnn(C/C(N)=N/O)n2)c1 | -0.115
CCOc1ccc(C(=O)Nc2ccc(NC(=O)c3ccco3)c(Cl)c2)cc1Br | -0.104
CCOc1ccccc1C(=O)NC1CCN(Cc2nnnn2C2CCCC2)CC1 | -0.65
O=C(CCCN1C(=O)c2cccc3cccc(c23)C1=O)N1CCN(c2ccccn2)CC1 | 0.0204
Cc1cc(/C=C2/SC(=O)N(CC(=O)OC(C)C)C2=O)c(C)n1C | -0.555
CCC(=O)N1CCN(c2ccccc2NC(=O)c2ccc(OC)c(Cl)c2)CC1 | -0.323
FC(F)(F)c1cccc(NC(=S)N2CCN(c3cccc(C(F)(F)F)c3)CC2)c1 | -0.191
COc1ccc2[nH]c(=O)c(CN(Cc3cccs3)S(=O)(=O)c3cccc4nsnc34)cc2c1 | 0.0513
COc1ccc(C2C(C#N)=C(N)N(c3ccccc3)C3=C2C(=O)CCC3)cc1Cn1cc([N+](=O)[O-])cn1 (stereo not given) | -0.119
CCNc1nc(NCC)nc(OCCNS(=O)(=O)c2cc(C)ccc2C)n1 | 0.22
Cc1csc(NC(=O)CSc2nnc(Cn3c(=O)sc4ccccc43)n2-c2ccccc2)n1 | 0.298
CCOC(=O)Nc1ccc2c(c1)Nc1ccccc1S2 | -0.571
CC1(C)CC(=O)C(C(C2=C(O)CC(C)(C)CC2=O)c2ccc(Br)s2)C(=O)C1 (stereo not given) | -0.495
O=C1c2ccccc2N2C(=O)c3ccccc3[C@H]2N1c1ccccc1 | -0.361
O=C(N1CCOCC1)N1CCC(n2nnc3cc(F)ccc32)CC1 | 0.107
Cc1occc1C(=O)Nc1nccs1 | -0.178
CCC(C)(C(=O)NC1CCCCC1)N(C(=O)c1ccccn1)c1ccc(C)cc1 (stereo not given) | -0.103
O=C(CN1C(=O)c2cccnc2C1=O)c1ccccc1 | -0.164
O=c1c2cc3c(=O)n(CC4CCCO4)c(=O)c3cc2c(=O)n1CC1CCCO1 (stereo not given) | 0.192
O=C(NCc1cccs1)c1cc(-c2ccccc2)nc2ccccc12 | 0.193
CCCc1cc(SCC(=O)Nc2c(C)n(C)n(-c3ccccc3)c2=O)n2c(nc3ccccc32)c1C#N | -0.0712
C#CCn1cc(/C=N/NC(=O)c2cc3ccccc3o2)c2ccccc21 | -0.24

Compound | z-score
N#Cc1ccc(C(=O)Nc2ccc(S(=O)(=O)NC3=NCCCCC3)cc2)cc1 | 0.109
CCCNc1nc(OC(C(F)(F)F)C(F)(F)F)nc(OC(C(F)(F)F)C(F)(F)F)n1 | 0.00419
COc1ccc(C2C(C(=O)c3ccco3)=C(O)C(=O)N2CCOCCO)cc1OC (stereo not given) | -0.0423
S=C(NNc1ccnc2cc(Cl)ccc12)Nc1ccccc1Cl | -0.546
CN(C)c1oc(-c2ccc(Cl)cc2)nc1S(=O)(=O)c1ccccc1 | -0.0312
CCN1c2cccc3cccc(c23)S1(=O)=O | -0.163
Cc1cc2ccccc2c(=O)n1CC(=O)NCC(=O)N1CCN(c2ccccc2F)CC1 | 0.731
O=C(c1ccc(Cl)cc1)c1oc2ccccc2c1CS(=O)c1ccccc1 (stereo not given) | -0.623
O=C(CC1(C(=O)O)CCCC1)N1CCOCC1 | 0.113
O=C(c1cc2ccccc2oc1=O)N(Cc1ccco1)Cc1cccs1 | -0.741
Cc1cc(=O)n2[nH]cc(C(=O)O)c2n1 | -0.102
COc1ccc(NC(=O)c2cc(-c3ccc(C)o3)nc3ccccc23)cc1OC | -0.371
Cc1ccc(C)n1-c1cc(S(=O)(=O)N2CCOCC2)ccc1N1CCCC1 | -0.688
Cc1ccc(-n2c(SCC(=O)Nc3ccc4c(c3)OCO4)nnc2-c2ccccn2)cc1 | 0.123
CCOC(=O)C(=CNc1cc(C)nn1-c1ccccc1)C(=O)OCC | -0.935
C=C1C2(C(=O)Nc3ccc(SC(F)F)cc3)CCC(C2)C1(C)C (stereo not given) | 0.546
O=C(Cc1ccccc1[N+](=O)[O-])NCc1ccccc1Cl | 0.128
O=C(C1CC1)N1CCC(C(O)(c2ccccc2)c2ccccc2)CC1 | -0.37
OCCCc1nc2n(n1)C(c1cccs1)C=C(c1ccccc1)N2 (stereo not given) | 2.68
CC(=O)c1c(C)[nH]c(C(=O)OCC(=O)Nc2cccc(S(=O)(=O)N3CCCC3)c2)c1C | 0.16
Cc1cc(C)c([N+](=O)[O-])cc1-c1ccc(/C=N/NC(=O)c2nonc2N)o1 | -0.911
O=S(=O)(c1ccc(Cl)cc1)N1CCn2c1nc1ccccc12 | 0.858

Compound | z-score
CCOc1ccc(OCc2ccc(C(=O)Nc3cccnc3)o2)cc1 | -0.0433
O=C(O)C1(c2cccc(Cl)c2)CCC1 | -0.0757
Cc1cccc(-c2cc(C(=O)NCCCn3ccnc3)c3ccccc3n2)c1 | -0.224
O=C(Nc1cccs1)Nc1ccc(Br)cc1F | 0.678
Cc1ccccc1NC(=O)c1ccc(COc2ccc3c(C)cc(=O)oc3c2)cc1 | -0.115
Clc1ccccc1CSc1nc2ccncc2[nH]1 | 0.533
O=C(NC1CC1)c1ccc(S(=O)(=O)NCC2CCCCC2)cc1 | 0.116
COC(=O)C(CC(C)C)NC(=O)CSc1nc(-c2ccccc2)c(C#N)c(=O)[nH]1 (stereo not given) | -0.417
COc1cccc(OC)c1C(=O)NN1CCCCC1 | -0.254
Cc1ccc(C(=O)NCCCn2ccnc2)cc1[N+](=O)[O-] | 0.161
O=C(Nc1ccc(N2CCOCC2)cc1)c1cccnc1 | -0.32
CC(C)(C)CC(=O)O/N=C(\N)c1ccccn1 | -0.0383
Cc1ccc(C2=NN(S(C)(=O)=O)C(c3ccc4c(c3)OCO4)C2)cc1 (stereo not given) | 0.202
COc1cc(OC)nc(NC(=O)NS(=O)(=O)c2ccc(OC(F)(F)F)cc2)n1 | -0.799
CCCc1nc(N2CCOCC2)c(C#N)c2c1CCCC2 | 1.21
Cn1c(SCc2nc(-c3cccs3)no2)nnc1C1CCCCC1 | -0.304
COc1cc2c(cc1OC)-c1cc(NC3CCCCC3)nc(=O)n1CC2 | -2.16
CC(C)CC(c1nnnn1Cc1ccccc1)N1CCN(C(=O)c2ccco2)CC1 (stereo not given) | 0.752
CCOCCOCCC(C(=O)OCC)P(=O)(c1ccccc1)c1ccccc1 (stereo not given) | 0.0813
COc1cc(NC(=O)CSc2ncccc2C(=O)OC(C)C)cc(OC)c1 | 0.436
O=C(c1ccc(S(=O)(=O)N2CCCCCC2)cc1)N1CCN(c2ccccn2)CC1 | -0.97
CCOC(=O)Nc1nnc(/C=C/c2ccc(OC)cc2)s1 | -0.0465

Compound | z-score
Fc1cccc(CSc2ncnc3c2oc2ccccc23)c1 | -0.0132
O=C(/C=C/c1ccccc1)N1CCN(C(=O)c2ccco2)CC1 | -0.277
Cc1cc(NC(=O)c2cc(-c3cccs3)on2)nn1Cc1ccc(Cl)cc1 | -0.986
CCOC(=O)c1sc2ncnc(OC)c2c1C | -1.01
N=c1ncn(CC(O)CO)c2nc(N3CCOCC3)[nH]c12 (stereo not given) | -0.0516
CCn1c(SCC(=O)Nc2cccc(NC(=O)c3ccco3)c2)nnc1-c1cccs1 | -0.238
Cc1cc(C)c(C#N)c(SCC(=O)c2cc(C)n(CCc3ccccc3)c2C)n1 | -0.392
COc1cccc(C(=O)Nc2cccc(C(=O)NCC(C)C)c2)c1 | -0.271
Cc1cc(C)c2c(=O)cc(C(F)F)oc2c1 | -0.047
CCOc1ccc(CCNC(=O)c2ccc(N3CCCC3=O)cc2)cc1OCC | 0.407
CN(C)C(=S)Nc1ccc2ccccc2c1 | 0.277
CCOC(=O)C1=C(C)NC(=O)NC1c1cccc(OC)c1OCc1ccccc1Cl (stereo not given) | 0.00808
CCn1c(COc2ccc(OC)cc2)nc2ccccc21 | -0.207
COc1ccc(-c2nc(CS(=O)CC(=O)N3CCc4ccccc4C3)c(C)o2)cc1 (stereo not given) | -0.0904
O=C1C(=O)N(c2ccccc2)c2ccccc21 | -0.226
CCCS(=O)(=O)c1c(S(=O)(=O)CCC)c2cnccn2c1C(=O)c1ccc(Cl)cc1 | -0.151
CCn1c(NCc2cccc(OC)c2OC)nc2ccccc21 | -0.218
COC(=O)CSc1nnc(CNC(=O)c2ccccc2OC)n1C | -0.323
Cc1cc2cc(CN(CCN3CCOCC3)C(=O)Nc3ccccc3F)c(=O)[nH]c2cc1C | -0.536
CCNC(=O)c1sc(=S)n(-c2ccc(C)cc2)c1N | -0.262
CCC(C)(C(=O)NC1CCCCC1)N(CC1CCCO1)C(=O)CNC(=O)c1ccccc1 (stereo not given) | 0.914
CN1CCc2c(sc3c2C(=O)NC(c2cn(Cc4ccccc4)c4ccccc24)N3)C1 (stereo not given) | 0.56

Compound | z-score
CCC1Oc2ccccc2N(CC(=O)NCCC2=CCCCC2)C1=O (stereo not given) | -0.455
CCOC(=O)c1nnn(-c2nonc2N)c1CSc1ccccc1 | -1.55
CC(C)(C)C1=CC(=O)C(N2CCOCC2)=CC1=O | -0.761
CC1(C)CC(=O)CC(C)(C)N1OC(=O)c1ccccn1 | 0.04
Cc1ncc([N+](=O)[O-])n1CCOC(=O)Nc1ccc(Cl)c(Cl)c1 | -0.149
Cc1ccc(-c2nnc(SCC(=O)N/N=C/c3cccs3)n2-c2ccc(C)cc2)cc1 | -0.202
COc1ccc(S(=O)(=O)N2CCC(C(=O)NCc3ccccn3)CC2)cc1C | -0.121
COc1cccc(-c2cc(C(F)(F)F)nc(N3CCCCC3)n2)c1 | -0.292
CCOc1ccc2cc(/C=C/C(=O)c3ccco3)c(Cl)nc2c1 | -0.0324
FC(F)(F)c1cccc(Cn2nnnc2-c2ccc(Cl)cc2)c1 | -0.11
CNC(=S)NN(C)c1nc(C)cc(C)n1 | -0.186
CCCC(=O)Nc1sc(C)c(C)c1C(=O)Nc1cccc(C)c1 | -0.261
CCCC(=O)Nc1cc(C)c(NC(=O)C23CC4CC(CC(C4)C2)C3)cn1 | 0.0448
O=[N+]([O-])c1cccc(-c2nc(-c3ccncc3)no2)c1 | 0.438
COC(=O)CCC(=O)Nc1cccc2c(NC(=O)CCC(=O)OC)cccc12 | 0.169
COc1ccc(CN2CCN(C(=O)C3CC(=O)N(C4CCCCCC4)C3)CC2)c(OC)c1OC (stereo not given) | 0.142
O=C(COc1ccccc1)Nc1nnc(-c2ccccc2)o1 | -0.421
Cc1c(NC(=O)CC(=O)Nc2c(C)n(C)n(-c3ccccc3)c2=O)c(=O)n(-c2ccccc2)n1C | -0.0936
CCOC(=O)Cn1c(C)nc2c(C(=O)OCC)sc(C)c2c1=O | -0.121
CC(C)COc1ccccc1C(=O)NC(CO)C(=O)O (stereo not given) | 0.167
COc1ccccc1OCCc1nnc(N)s1 | -0.111
O=[N+]([O-])c1cccc(/C=N/Nc2nc(C(Cl)(Cl)Cl)nc3ccccc23)c1 | -0.0926
